Inconclusive means that the source gave no clear call. Such entries were picked first, then a sample of the others. Where the call is inconclusive, the potency comes from a doubtful curve fit. Calls of active or inactive are those of the source. Calls come from the whole dose curve; as a rule, active = well fitted cell-killing curve with a large enough effect in the repeat runs; inconclusive = weak or mixed curves, or effect the other way; inactive = flat fitted curve, though single readings scatter.
Assay: qHTS RealTime-Glo MT Cell Viability Assay in HEK293 cells - 32 hour (AID 1224868); note: nearly all actives have a fitted effect of over 50% in size; for activity change, negative = cytotoxic: top concentration of the series differs between compounds
Settings: RealTime-Glo luminescence; series mostly up to 76.8 µM; activity change, negative = cytotoxic: at the top concentration
Procedure, shortened: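 Luminescence generated by NanoLuc from substrate produced by living HEK293 cells served as the viability signal. Each value reflects the reading at its stated time point during continuous 40 h compound exposure at 37 C.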
% is set by controls: 0 for no effect and ±100 for the full control effect; potency is the fitted concentration of half-maximal effect; tags give direction and shape of the fitted curve.

SMILES | Potency | activity change, negative = cytotoxic
CCCCC(CC)C(=O)O (stereo not given) | inconclusive: 12.5 µM [cytotoxic, single point] | –
CCCC(C)C(=O)OCC (stereo not given) | – | inactive: 2.38%
OCCC(F)(F)C(F)(F)C(F)(F)C(F)(F)C(F)(F)C(F)(F)C(F)(F)C(F)(F)F | inconclusive: 49 µM [rising, single point] | –
CCCC/C=C\CCCCCCCCCC=O | – | inactive: -10.5%
C=CC(=O)OCCC#N | inconclusive: 62 µM [cytotoxic, single point] | –

Source: PubChem BioAssay (Tox21)
